Experimental data published in the CheMixHub viscosity set.
The source gives many values for each of these; only a part stands here.

Assay: xn = mol fraction of the nth substance listed

COCCO + CCCO
298.15 K, 101.33 kPa
Conditions	viscosity [mPa·s]
x1 = 0.0767	1.821
x1 = 0.0973	1.792
x1 = 0.1162	1.767
x1 = 0.1639	1.713
x1 = 0.2144	1.666
x1 = 0.2667	1.624
x1 = 0.3227	1.589
x1 = 0.3699	1.567
x1 = 0.4118	1.548
x1 = 0.4575	1.532
x1 = 0.4938	1.521
x1 = 0.5359	1.51
x1 = 0.5856	1.503
x1 = 0.6298	1.497
x1 = 0.6793	1.494
x1 = 0.7347	1.493
x1 = 0.7779	1.494
x1 = 0.8231	1.497
x1 = 0.8729	1.502
x1 = 0.9153	1.507
x1 = 0.9597	1.52
x2 = 0.0192	1.525

COCCO + O
viscosity [mPa·s]
Conditions	293.15 K	303.15 K	308.15 K	313.15 K	323.15 K
101 kPa, x1 = 0.01004	1.14	0.894	–	0.727	0.596
101 kPa, x1 = 0.03021	1.45	1.1	–	0.878	0.707
101 kPa, x1 = 0.05009	1.74	1.29	–	1.018	0.811
101 kPa, x1 = 0.09213	2.35	1.71	–	1.3	1.02
101 kPa, x1 = 0.1367	2.85	2.05	–	1.55	1.16
101 kPa, x1 = 0.1909	3.32	2.35	–	1.76	1.3
101 kPa, x1 = 0.2619	3.5	2.51	–	1.91	1.4
101 kPa, x1 = 0.3559	3.54	2.53	–	1.92	1.44
101 kPa, x1 = 0.4857	3.18	2.34	–	1.8	1.37
101 kPa, x1 = 0.5709	2.92	2.18	–	1.69	1.31
101 kPa, x1 = 0.679	2.59	1.96	–	1.55	–
101 kPa, x1 = 0.7516	2.39	–	–	1.45	1.17
101 kPa, x1 = 0.8458	2.16	1.64	–	1.34	1.09
101 kPa, x1 = 0.9167	1.98	1.53	–	1.26	1.03
101.33 kPa, x1 = 0.4974	–	–	2.14	–	–
101.33 kPa, x1 = 0.5691	–	–	2.01	–	–
101.33 kPa, x1 = 0.6414	–	–	1.878	–	–
101.33 kPa, x1 = 0.6928	–	–	1.787	–	–
101.33 kPa, x1 = 0.7288	–	–	1.724	–	–
101.33 kPa, x1 = 0.768	–	–	1.658	–	–
101.33 kPa, x1 = 0.9214	–	–	1.423	–	–
